Measured values: patent US20230235090A1 (HARBOUR BIOMED US, published 2023)

T1: human B7-H4 (human, UniProt Q7Z7D3 25-282)
T1 construct: whole, on cells; also called VTCN1; SK-BR-3 cell line highly expressing B7-H4
T1 sequence (looked up): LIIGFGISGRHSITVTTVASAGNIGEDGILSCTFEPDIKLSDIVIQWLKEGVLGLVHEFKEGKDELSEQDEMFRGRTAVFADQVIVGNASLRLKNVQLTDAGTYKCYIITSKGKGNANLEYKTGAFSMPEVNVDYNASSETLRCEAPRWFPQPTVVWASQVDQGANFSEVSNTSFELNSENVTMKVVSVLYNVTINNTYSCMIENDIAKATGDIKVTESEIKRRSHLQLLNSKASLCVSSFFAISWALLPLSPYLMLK

B1: PR003334 (bispecific antibody, human IgG1, kappa)
light: EIVMTQSPATLSVSPGERATLSCRASQSISSNLGWYQQKPGQAPRLLIYGASTRATGIPARFSGSGSGTEFTLTISSLQSEDFAVYYCQQYQSWPPLTFGGGTKVEIKRTVAAPSVFIFPPSDEQLKSGTASVVCLLNNFYPREAKVQWKVDNALQSGNSQESVTEQDSKDSTYSLSSTLTLSKADYEKHKVYACEVTHQGLSSPVTKSFNRGEC
heavy: QVQLVESGGGVVQPGRSLRLSCAASGFTFRSFGMHWVRQAPGKGLEWVAVISYDASNEYYADSVKGRFIISRDNSKDTLYLQMNSLRAGDTAVYYCAKGGGLRWYFAYWGQGTLVTVSSASTKGPSVFPLAPSSKSTSGGTAALGCLVKDYFPEPVTVSWNSGALTSGVHTFPAVLQSSGLYSLSSVVTVPSSSLGTQTYICNVNHKPSNTKVDKKV[letters of human IgG1 Fc with changes not shown]EPKSSDKTHTPPPPPRTEVQLLESGGGLVQLGGSLRLSCAASGFTFSRYAMTWVRQAPEKGLEWVSSISGSGDDTYYGDSVKGRFTISRDNSQNTVYLQMNSLRAEDTAVYFCAKEKAGTTGDYYYNVDVWGQGTTVTVSS
notes: IgG-VH tetravalent symmetric; PR002408 IgG x PR001758 VH; linker H1_15-RT; IgG1 (L234A, L235A); also called PR0003334
B2: PR003335 (bispecific antibody, human IgG1, kappa)
light: B1 light
heavy: QVQLVESGGGVVQPGRSLRLSCAASGFTFRSFGMHWVRQAPGKGLEWVAVISYDASNEYYADSVKGRFIISRDNSKDTLYLQMNSLRAGDTAVYYCAKGGGLRWYFAYWGQGTLVTVSSASTKGPSVFPLAPSSKSTSGGTAALGCLVKDYFPEPVTVSWNSGALTSGVHTFPAVLQSSGLYSLSSVVTVPSSSLGTQTYICNVNHKPSNTKVDKKV[letters of human IgG1 Fc with changes not shown]EPKSSDKTHTPPPPPRTEVQLVESGGGVVQPGGSLRLSCAASGFTFSNYAMTWVRQAPEKGLEWVSSISGSGVSTYYADSVKGRFTISRDNSKNTLYLQMTRLTAEDTAVYFCAKEGSSETDDHYYNVDVWGQGTTVTVSS
notes: IgG-VH tetravalent symmetric; PR002408 IgG x PR001760 VH; linker H1_15-RT; IgG1 (L234A, L235A); also called PR0003335
B3: PR003336 (bispecific antibody, human IgG1, kappa)
light: B1 light
heavy: QVQLVESGGGVVQPGRSLRLSCAASGFTFRSFGMHWVRQAPGKGLEWVAVISYDASNEYYADSVKGRFIISRDNSKDTLYLQMNSLRAGDTAVYYCAKGGGLRWYFAYWGQGTLVTVSSASTKGPSVFPLAPSSKSTSGGTAALGCLVKDYFPEPVTVSWNSGALTSGVHTFPAVLQSSGLYSLSSVVTVPSSSLGTQTYICNVNHKPSNTKVDKKV[letters of human IgG1 Fc with changes not shown]EPKSSDKTHTPPPPPRTEVQLLESGGGLVQPGGSLRLSCTASGFTFSNYAMSWVRQAPEKGLEWVSSISGSGGSTFYADSVKGRFTISRDNSKNTLYLQMNSLRAEDTAVYFCAKEGSSETDDHYYNVDVWGQGTTVTVSS
notes: IgG-VH tetravalent symmetric; PR002408 IgG x PR001830 VH; IgG1 (L234A, L235A)
B4: PR003337 (bispecific antibody, human IgG1, kappa)
light: B1 light
heavy: QVQLVESGGGVVQPGRSLRLSCAASGFTFRSFGMHWVRQAPGKGLEWVAVISYDASNEYYADSVKGRFIISRDNSKDTLYLQMNSLRAGDTAVYYCAKGGGLRWYFAYWGQGTLVTVSSASTKGPSVFPLAPSSKSTSGGTAALGCLVKDYFPEPVTVSWNSGALTSGVHTFPAVLQSSGLYSLSSVVTVPSSSLGTQTYICNVNHKPSNTKVDKKV[letters of human IgG1 Fc with changes not shown]EPKSSDKTHTPPPPPRTEVQLLESGGGLVQPGGSLRLSCAASGFTFSSYAMSWVRQAPEKGLEWVSSISGSGGSTFYADSVKGRFTISRDNSKNTLYLQMNSLRAEDTAVYFCAKEGATETDDYHFNTDVWGQGTTVTVSS
notes: IgG-VH tetravalent symmetric; PR002408 IgG x PR001833 VH; IgG1 (L234A, L235A)
B5: PR002798 (bispecific antibody, human IgG1, kappa, L234A L235A)
polypeptide chain 1: B1 light with Q92N
polypeptide chain 2: QVQLVESGGGVVQPGRSLRLSCAASGFTFRSFGMHWVRQAPGKGLEWVAVISYDGSNEYYADSVKGRFIISRDNSKDTLYLQMNSLRAGDTAVYYCAKGGGLRWYFAYWGQGTLVTVSSASTKGPSVFPLAPSSKSTSGGTAALGCLVKDYFPEPVTVSWNSGALTSGVHTFPAVLQSSGLYSLSSVVTVPSSSLGTQTYICNVNHKPSNTKVDKKVEPKSCDKTHTCPPCPAPEAAGGPSVFLFPPKPKDTLMISRTPEVTCVVVDVSHEDPEVKFNWYVDGVEVHNAKTKPREEQYNSTYRVVSVLTVLHQDWLNGKEYKCKVSNKALGAPIEKTISKAKGQPREPQVYTLPPSREEMTKNQVSLTCLVKGFYPSDIAVEWESNGQPENNYKTTPPVLDSDGSFFLYSKLTVDKSRWQQGNVFSCSVMHEALHNHYTQKSLSLSPGEPKSSDKTHTPPPPPRTEVQLVESGGGLVQPGGSLRLSCAASGFTFSSFAMTWVRQAPEKGLEWVSTISGSGDTTYYADSVKGRFTISRDSSKNTLYLQMNSLRAEDSAVYFCAKEATAMASDYYYGVDVWGQGTTVTVSS
notes: IgG-VH: PR001476 IgG + PR001774 VH, linker H1_15-RT, human IgG1 (L234A, L235A, P329G)
B6: PR002802 (bispecific antibody, human IgG1, kappa, L234A L235A)
light: B1 light with Q92N
heavy: QVQLVESGGGVVQPGRSLRLSCAASGFTFRSFGMHWVRQAPGKGLEWVAVISYDGSNEYYADSVKGRFIISRDNSKDTLYLQMNSLRAGDTAVYYCAKGGGLRWYFAYWGQGTLVTVSSASTKGPSVFPLAPSSKSTSGGTAALGCLVKDYFPEPVTVSWNSGALTSGVHTFPAVLQSSGLYSLSSVVTVPSSSLGTQTYICNVNHKPSNTKVDKKVEPKSCDKTHTCPPCPAPEAAGGPSVFLFPPKPKDTLMISRTPEVTCVVVDVSHEDPEVKFNWYVDGVEVHNAKTKPREEQYNSTYRVVSVLTVLHQDWLNGKEYKCKVSNKALGAPIEKTISKAKGQPREPQVYTLPPSREEMTKNQVSLTCLVKGFYPSDIAVEWESNGQPENNYKTTPPVLDSDGSFFLYSKLTVDKSRWQQGNVFSCSVMHEALHNHYTQKSLSLSPGEPKSSDKTHTPPPPPRTEVQLLESGGGLVQPGGSLRLSCTASGFTFSNYAMSWVRQAPEKGLEWVSSISGSGGSTFYADSVKGRFTISRDNSKNTLYLQMNSLRAEDTAVYFCAKEGSSETDDHYYNVDVWGQGTTVTVSS
notes: IgG-VH tetravalent symmetric; PR001476 IgG x PR001830 VH; IgG1 (L234A, L235A, P329G)
B7: PR002791 (bispecific antibody, human IgG1, kappa, L234A L235A)
light: B1 light with Q92N
heavy: B6 heavy with L470V, L476V, T488A, S500T, G521V, F524Y, N549T, S550R, R552T
notes: IgG-VH tetravalent symmetric; PR001476 IgG x PR001760 VH; IgG1 (L234A, L235A, P329G)
B8: PR002804 (bispecific antibody, human IgG1, kappa, L234A L235A)
light: B1 light with Q92N
heavy: B6 heavy with T488A, N496S, S566A, S567T, H572Y, Y573H, Y574F, V576T
notes: IgG-VH tetravalent symmetric; PR001476 IgG x PR001833 VH; IgG1 (L234A, L235A, P329G)
B9: PR002806 (bispecific antibody, human IgG1, kappa, L234A L235A)
light: B1 light with Q92N
heavy: QVQLVESGGGVVQPGRSLRLSCAASGFTFRSFGMHWVRQAPGKGLEWVAVISYDGSNEYYADSVKGRFIISRDNSKDTLYLQMNSLRAGDTAVYYCAKGGGLRWYFAYWGQGTLVTVSSASTKGPSVFPLAPSSKSTSGGTAALGCLVKDYFPEPVTVSWNSGALTSGVHTFPAVLQSSGLYSLSSVVTVPSSSLGTQTYICNVNHKPSNTKVDKKVEPKSCDKTHTCPPCPAPEAAGGPSVFLFPPKPKDTLMISRTPEVTCVVVDVSHEDPEVKFNWYVDGVEVHNAKTKPREEQYNSTYRVVSVLTVLHQDWLNGKEYKCKVSNKALGAPIEKTISKAKGQPREPQVYTLPPSREEMTKNQVSLTCLVKGFYPSDIAVEWESNGQPENNYKTTPPVLDSDGSFFLYSKLTVDKSRWQQGNVFSCSVMHEALHNHYTQKSLSLSPGEPKSSDKTHTPPPPPRTEVQLLESGGGLVQPGGSLRLSCAASGFTFSNYAMSWFRQPPETGLKWVSSIDGSGGDTYYADSVKGRFTISRDNSKNTLYLQMNSLRAEDTAVYYCAKEGSHGTDDSHYDVDVWGQGTTVTVSS
notes: IgG-VH tetravalent symmetric; PR001476 IgG x PR001838 VH; IgG1 (L234A, L235A, P329G)

Biological target: T2, human 4-1BB (human, UniProt Q07011 24-255)
T2 construct: whole, on cells; also called CD137; TNFRSF9
T2 sequence (Q07011 24-255): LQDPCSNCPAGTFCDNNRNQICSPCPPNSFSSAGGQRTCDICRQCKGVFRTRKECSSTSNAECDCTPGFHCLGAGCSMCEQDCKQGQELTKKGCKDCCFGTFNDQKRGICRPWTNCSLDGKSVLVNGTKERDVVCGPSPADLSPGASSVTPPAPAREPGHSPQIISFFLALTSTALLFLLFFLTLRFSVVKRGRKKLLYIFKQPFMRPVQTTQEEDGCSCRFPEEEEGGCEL
Test: FACS, CHO-K1/h4-1BB cells [D]

Binder	EC50 [pM]	Maximum MFI [MFI]
B1	483	163000
B2	740	173000
B3	500	166000
B4	722	166000

Biological target: T3, cynomolgus monkey 4-1BB (cynomolgus monkey)
T3 construct: whole, on cells; also called CHO-K1-cyno 4-1BB; CHO-K1/cyno4-1BB
Test: FACS, CHO-K1/cyno 4-1BB cells [B]

Binder	EC50 [pM]	Maximum MFI [MFI]
B1	658	22600
B2	797	24400
B3	443	22100
B4	631	22500

Biological target: T1, human B7-H4
Test: FACS, SK-BR-3 cells [C]

Binder	EC50 [pM]	Maximum MFI [MFI]
B5	596	33200

Biological target: T1, human B7-H4
Test: FACS, SK-BR-3 cells [A]

Binder	EC50 [pM]	Maximum MFI [MFI]	binding result
B6	499	49900	
B7	554	53400	
B8	615	53300	
B9			binds

Biological target: T3, cynomolgus monkey 4-1BB
Test: FACS, CHO-K1/cyno 4-1BB cells [A]

Binder	EC50 [pM]	Maximum MFI [MFI]
B6	3340	31300
B7	844	23900
B8	705	28200
B9	470	25500

Substitutions are numbered along the chain they refer to. Names may count otherwise.
